Reference: the supplement of paper PMC11880418
Counter-ions that a name gives are not always drawn. The list shows a part of the results. The data scatter; read single values as rough.

Columns and labels:
Experiment in all cases: ALDHbr (CSC) cell proportion score relative to DMSO vehicle (ratio to DMSO); breast (SUM159) / gastric (MKN45) / pancreatic (PANC1) / colon cancer lines; ALDHbr cells have high ALDH activity and are rich in cancer stem cells (CSC); higher = more CSC (ALDHbr) cells remaining
Details in all cases: 10 µM; 72 h
[1] = test system: MKN45
[2] = test system: PANC1
[3] = test system: SUM159
[4] = test system: T84
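Note: High-content imaging of ALDEFLUOR-stained cells with Hoechst-labelled nuclei in 384-well plates, triplicate wells, scored as Z-score against 0.1% DMSO vehicle, negative meaning fewer ALDHbr cells.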

| SMILES | ALDHbr [1] | ALDHbr [2] | ALDHbr [3] | ALDHbr [4] |
| --- | --- | --- | --- | --- |
| O=C(O)Cc1cc(I)c(Oc2ccc(O)c(I)c2)c(I)c1 [Tiratricol, 3,3',5-triiodothyroacetic acid] | 1.05 | 1.02 | 1.02 | 0.853 |
| CCCCC1C(=O)N(c2ccccc2)N(c2ccc(O)cc2)C1=O (configuration not stated) [Oxyphenbutazone] | 1.1 | 0.884 | 0.879 | 1.12 |
| Cc1ccc(-c2ncc(Cl)cc2-c2ccc(S(C)(=O)=O)cc2)cn1 [Etoricoxib] | 0.954 | 0.826 | 0.961 | 1.07 |
| Cc1c(O)c(=O)n(-c2ccccc2)n1C [Antipyrine, 4-hydroxy] | 0.921 | 0.904 | 1.31 | 0.756 |
| CC(C)NC[C@@H](O)COc1ccc(CC(N)=O)cc1 [(R)-(+)-Atenolol] | 0.979 | 0.981 | 1.54 | 0.949 |
| CCOC(=O)[C@H](CCc1ccccc1)N[C@@H](C)C(=O)N1[C@H](C(=O)O)C[C@@H]2CCC[C@@H]21 [Ramipril] | 0.955 | 0.922 | 0.919 | 0.831 |
| CCC[C@@H]1C[C@@H](C(=O)N[C@@H]([C@H]2O[C@H](SC)[C@H](O)[C@@H](O)[C@H]2O)[C@H](C)Cl)N(C)C1 [Clindamycin hydrochloride] | 0.937 | 0.489 | 1.12 | 0.993 |
| CO[C@@]1(NC(=O)C(C(=O)O)c2ccc(O)cc2)C(=O)N2C(C(=O)O)=C(CSc3nnnn3C)CO[C@@H]21 (some centres not stated) [Moxalactam disodium salt] | 0.993 | 0.844 | 0.653 | 0.934 |
| CC(=O)Nc1ccc(OCC(O)CNC(C)C)cc1 (configuration not stated) [Practolol] | 0.996 | 0.847 | 1.3 | 0.954 |
| N=C(N)N/N=C/c1c(Cl)cccc1Cl [Guanabenz acetate] | 1.37 | 1.05 | 1.03 | 0.91 |
| CC(=O)[C@@]12O[C@](C)(c3ccccc3)O[C@@H]1C[C@H]1[C@@H]3CCC4=CC(=O)CC[C@]4(C)[C@H]3CC[C@@]12C [Algestone acetophenide] | 0.396 | 0.821 | 0.428 | 0.549 |
| CCCNC(=O)NS(=O)(=O)c1ccc(Cl)cc1 [Chlorpropamide] | 1.02 | 0.817 | 0.834 | 0.852 |
| c1ccc2[nH]c(-c3cscn3)nc2c1 [Tiabendazole] | 1.22 | 1.1 | 1.54 | 0.96 |
| O=C1O[C@H]([C@@H](O)CO)C(O)=C1O [Ascorbic acid] | 1.27 | 0.845 | 1.18 | 0.925 |
| CC(CN1c2ccccc2Sc2ccccc21)N(C)C (configuration not stated) [Promethazine hydrochloride] | 1.05 | 1.31 | 0.771 | 0.893 |
| C[C@@H](O[C@H]1OCCN(Cc2n[nH]c(=O)[nH]2)[C@H]1c1ccc(F)cc1)c1cc(C(F)(F)F)cc(C(F)(F)F)c1 [Aprepitant] | 0.698 | 1.92 | 1.28 | 0.654 |
| CC[C@H](C)C(=O)O[C@H]1C[C@@H](C)C=C2C=C[C@H](C)[C@H](CC[C@@H]3C[C@@H](O)CC(=O)O3)[C@H]21 [Lovastatin] | 0.47 | 1.45 | 0.453 | 0.794 |
| O=C1Cc2cc(CCN3CCN(c4nsc5ccccc45)CC3)c(Cl)cc2N1 [Ziprasidone  Hydrochloride] | 1.08 | 0.566 | 1.08 | 1.07 |
| CC(=O)[C@H]1CC[C@H]2[C@@H]3CC=C4C[C@@H](O)CC[C@]4(C)[C@H]3CC[C@]12C [Pregnenolone] | 0.79 | 0.936 | 1.04 | 0.968 |
| CC1=C(C(=O)O)N2C(=O)[C@@H](NC(=O)[C@H](N)c3ccc(O)cc3)[C@H]2SC1 [Cefadroxil] | 0.999 | 0.988 | 0.841 | 1.02 |
| C=CCc1ccccc1OCC(O)CNC(C)C (configuration not stated) [Alprenolol hydrochloride] | 0.878 | 0.984 | 1.44 | 1.03 |
| CCOc1ccccc1OC(c1ccccc1)C1CNCCO1 (configuration not stated) [Reboxetine mesylate] | 1.11 | 0.883 | 1.25 | 0.894 |
| N[C@@H]1CCCCN(c2c(F)cc3c(=O)c(C(=O)O)cn(C4CC4)c3c2Cl)C1 [Besifloxacin hydrochloride] | 1.25 | 0.88 | 0.904 | 0.938 |
